# Source: the antibiotic and cytotoxicity screens of Wong et al. (2023)
# The other results are listed elsewhere or left out.
# What was measured:
# HSkMC = human skeletal muscle cells; assay: cytotoxicity call (relative viability < 0.9); settings: 10 µM
# HepG2 = assay: cytotoxicity call (relative viability < 0.9); settings: 10 µM
# S. aureus RN4220 = assay: growth inhibition call (relative growth <= 0.2); settings: 50 µM
SMILES,cytotoxicity call (HSkMC),cytotoxicity call (HepG2),growth inhibition call (S. aureus RN4220)
C[C@@H]1CCCCO[C@H](CN(C)S(=O)(=O)c2ccccc2)[C@@H](C)CN([C@@H](C)CO)C(=O)c2cc(NC(=O)Nc3ccc(C(F)(F)F)cc3)ccc2O1,inactive,inactive,inactive
COc1ccc(NC(=O)N(C)C[C@@H]2Oc3cc(C#CCN(C)C)ccc3S(=O)(=O)N([C@@H](C)CO)C[C@@H]2C)cc1,inactive,inactive,inactive
C[C@H]1CN([C@@H](C)CO)C(=O)c2cc(NC(=O)Cc3ccccc3)ccc2O[C@@H]1CN(C)Cc1ccc(Oc2ccccc2)cc1,inactive,active,inactive
C[C@@H]1CN([C@H](C)CO)C(=O)c2cc(NC(=O)Cc3ccccc3)ccc2O[C@@H](C)CCCCO[C@H]1CN(C)C(=O)c1ccccc1,inactive,inactive,inactive
C[C@H](CO)N1C[C@H](C)[C@@H](CN(C)C(=O)Nc2ccccc2F)Oc2ncc(Br)cc2C1=O,inactive,inactive,inactive
C[C@H]1CCCCO[C@H](CN(C)S(=O)(=O)c2cccs2)[C@@H](C)CN([C@@H](C)CO)C(=O)c2cc(NC(=O)NC3CCCCC3)ccc2O1,inactive,inactive,inactive
C[C@@H]1CN([C@@H](C)CO)C(=O)Cc2cc(NC(=O)CCN3CCOCC3)ccc2O[C@H]1CN(C)S(=O)(=O)c1ccc(F)cc1,inactive,inactive,inactive
